PubChem BioAssay AID588855 (National Center for Advancing Translational Sciences (NCATS), 2011)
Several values for one entry are separate records, joined by “and”; a condition that tells them apart may be missing. Identical values can stand only once. In all, about 410,000 compounds went through this assay and about 5,000 (1.2%) were called active. Inconclusive results, whose numbers are uncertain, are shown with a selection of clear calls. Calls follow the shape of the dose curve; as a rule, active = well fitted inhibition curve with a large enough effect; inconclusive = small, poorly fitted or top-dose-only effect; inactive = no such curve, though single readings can be large or run the other way. A potency beside an inconclusive call is a rough fit, not a confirmed value.

Test: qHTS for Inhibitors of TGF-b; also: nearly all actives have a fitted effect of over 65% in size
Settings: HepG2 CAGA-GFP TGF-b/SMAD3 reporter, GFP fluorescence, 18 h, TGF-beta stimulated, 500 pg/mL final; series mostly up to 46.1 µM; activity, negative = inhibition: at the top concentration
How it was run: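 Inhibition was scored as loss of TGF-beta-induced (500 pg/mL final, 18 hours, 37 degrees C) GFP in HEPG2 cells carrying a CAGA-GFP reporter, in DMEM with 1% FBS. Well GFP was summed per cell; Activity was normalised to unstimulated and stimulated DMSO wells, then concentration-response fitting.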
% is scaled to controls: 0 for no effect and ±100 for the full control effect; potency is read from the fitted curve at half-maximal effect; tags tell the direction and shape of the fitted curve.

For `Cn1cnc([N+](=O)[O-])c1Oc1cccc2ccccc12`, which Potency is on record?
Its Potency is inconclusive: 6.31 µM [inhibitor, single point].

For `Cn1nc(C(C)(C)C)cc1C(=O)N1CCCCC1c1cc(C(=O)NCc2ccc(F)cc2)no1` (stereo not drawn), which Potency is on record?
The Potency was inconclusive: 15.8 µM [inhibitor, single point].

With `Cc1ccc(C)c(N2CCN(C(=O)C3CCCN(S(=O)(=O)c4c(C)noc4C)C3)CC2)c1` (stereo not drawn) as the molecule, how does the Potency read?
The Potency was inconclusive: 35.5 µM [inhibitor, single point].

With `CCC1CN(S(=O)(=O)c2cc(-c3cc(C)no3)ccc2C)c2cc(C)ccc2O1` (stereo not drawn) as the molecule, how does the Potency read?
The Potency was inconclusive: 31.6 µM [inhibitor, single point].

For `Cc1cc2cc(C)c3nnc(SCC(=O)Nc4ccc(S(=O)(=O)N5CCCCC5C)cc4)n3c2cc1C` (stereo not drawn), which “activity, negative = inhibition” value is on record?
The value was inactive: 0%.

With `O=C(NNC(=S)NCc1ccc(Cl)cc1)c1ccc2c(c1)OCO2` as the molecule, how does the Potency read?
Its Potency is inconclusive: 5.62 µM [inhibitor, full curve, poor fit].

Which Potency does the source give for `COc1cc(CCC(=O)NCc2ccc3c(c2)CCN3C(=O)c2ccccc2)cc(OC)c1OC` here?
The Potency was inconclusive: 12.6 µM [inhibitor, single point].

With `O=C(Cc1ccc(Cl)c(Cl)c1)NC1CCCCCC1` as the molecule, how does the Potency read?
Its Potency is inconclusive: 14.1 µM [inhibitor, partial curve, poor fit].

For `O=C(c1ccc(Cn2c(=O)[nH]c3ccccc3c2=O)cc1)N1CCN(c2ccc(Cl)cc2)CC1`, which Potency is on record?
Its Potency is inconclusive: 20 µM [inhibitor, partial curve, poor fit].

Which Potency does the source give for `O=C(CCSc1nc(-c2ccco2)cc(C(F)(F)F)n1)NCCc1ccccc1` here?
Its Potency is inconclusive: 35.5 µM [inhibitor, single point].

Which “activity, negative = inhibition” value does the source give for `Cc1ccc([C@H]2N[C@]3(CCCN(Cc4ccccc4)C3=O)[C@H]3C(=O)N(C)C(=O)[C@@H]23)cc1` here?
The value was inactive: -5.04%.

With `Cc1ccc(C(c2sc3ncnn3c2O)N2CC(C)CC(C)C2)cc1` (stereo not drawn) as the molecule, how does the Potency read?
Its Potency is inconclusive: 25.1 µM [inhibitor, single point].

With `O=C(Nc1ccc(S(=O)(=O)N2CCCC2)cc1)c1ccc(CN2CCc3ccccc3C2)cc1` as the molecule, how does the Potency read?
Its Potency is inconclusive: 0.251 µM [inhibitor, full curve, poor fit].

Which “activity, negative = inhibition” value does the source give for `Cc1nc([N+](=O)[O-])cn1CC(O)c1ccc2c(c1)OCCCO2` (stereo not drawn) here?
The value was inactive: -10.3%.

With `COc1cc2c(cc1OC)CN(C(=O)CN1CCN(S(=O)(=O)c3ccccc3)CC1)CC2` as the molecule, how does the “activity, negative = inhibition” value read?
Its value is inactive: 4.91%.

Which Potency does the source give for `Cc1nc2c(-c3ccc(F)cc3)c(C)nn2c(C)c1CCC(=O)N1CCN(c2ccccc2)CC1` here?
The Potency was inconclusive: 31.6 µM [inhibitor, single point] and inconclusive: 8.91 µM [inhibitor, partial curve, poor fit].

For `Cc1ccc(OCCCN2CCCC2)c(C)c1`, which “activity, negative = inhibition” value is on record?
The value was inactive: 15.8%.

For `CN1CCN(c2ccc(Cl)cc2NC(=O)c2ccc(=O)n(C)n2)CC1`, which Potency is on record?
Its Potency is inconclusive: 35.5 µM [inhibitor, single point].

Which “activity, negative = inhibition” value does the source give for `C(=C\n1nnc2ccccc21)/c1ccc[nH]1` here?
The value was inactive: -14.1%.

With `Cc1cccc2c3c([nH]c12)CCN(C)C3` as the molecule, how does the “activity, negative = inhibition” value read?
Its value is inactive: 13%.

For `Cc1[nH]nc2c1C(c1ccc(-c3ccc(Cl)cc3)o1)C(C#N)=C(N)O2` (stereo not drawn), which Potency is on record?
Its Potency is inconclusive: 35.5 µM [inhibitor, single point].

With `O=C(NC(c1ccc(-c2ccccc2)cc1)c1cnccn1)C1CCN(Cc2cccc(C(F)(F)F)c2)CC1` (stereo not drawn) as the molecule, how does the Potency read?
Its Potency is inconclusive: 14.1 µM [inhibitor, partial curve, poor fit].

For `CCCNC(=O)c1c[nH]c2ccc(S(=O)(=O)N(C)c3ccc(OCC)cc3)cc2c1=O`, which “activity, negative = inhibition” value is on record?
The value was inactive: -28.8%.

For `O=C1CN(C(=O)c2cc([N+](=O)[O-])ccc2Cl)C(c2ccc(F)cc2)c2cc(F)ccc2N1` (stereo not drawn), which “activity, negative = inhibition” value is on record?
Its value is inactive: -4.39%.

Which Potency does the source give for `COc1cccc(C(=O)NCC(c2cccs2)N2CCc3ccccc32)c1` (stereo not drawn) here?
The Potency was inconclusive: 25.1 µM [inhibitor, single point].

For `O=C(CC1Sc2ccccc2NC1=O)OC(C(=O)NCCc1ccccc1)c1cccnc1` (stereo not drawn), which Potency is on record?
The Potency was inconclusive: 35.5 µM [inhibitor, single point].

Which Potency does the source give for `COc1cc(Cl)c(S(=O)(=O)NCCc2c(C)[nH]c3c(C)cccc23)cc1Cl` here?
The Potency was inconclusive: 22.4 µM [inhibitor, single point].

For `C(=C\c1ccnc2ccccc12)/c1ccc(N2CCN(c3ccc(/C=C/c4ccnc5ccccc45)cc3)CC2)cc1`, which “activity, negative = inhibition” value is on record?
Its value is inactive: -3.87%.

With `O=C(Nc1cccc([N+](=O)[O-])c1)c1cnccn1` as the molecule, how does the Potency read?
Its Potency is inconclusive: 17.8 µM [inhibitor, partial curve, poor fit].

Which Potency does the source give for `FC(F)(F)c1ccccc1Cc1c(-c2ccc(Cl)cc2)nc2ccc(Cl)cn12` here?
Its Potency is inconclusive: 28.2 µM [inhibitor, single point].

With `N=C(N)SCc1ccc(Cl)c2ccccc12` as the molecule, how does the Potency read?
The Potency was inconclusive: 35.5 µM [inhibitor, single point].

With `Cc1ccc(C(=O)/C=C/Nc2ccc3c(c2)OCO3)cc1` as the molecule, how does the Potency read?
The Potency was inconclusive: 4.47 µM [inhibitor, single point].

With `CC(=O)Nc1ccc(C(=O)COC(=O)C2CC2)c(F)c1` as the molecule, how does the “activity, negative = inhibition” value read?
Its value is inactive: 7.96%.

For `Cc1ccc(CN2CCC(c3nc4ccc(Cl)cc4[nH]3)CC2)cc1`, which Potency is on record?
The Potency was inconclusive: 15.8 µM [inhibitor, partial curve, poor fit].

Which Potency does the source give for `O=C(Nc1ccc(Br)cc1Cl)NC1CC1` here?
The Potency was inconclusive: 35.5 µM [inhibitor, single point].

Which Potency does the source give for `CC1CCN(S(=O)(=O)c2ccc3c(c2)N(CC(=O)NC(C)c2ccccc2)C(=O)CS3)CC1` (stereo not drawn) here?
The Potency was inconclusive: 22.4 µM [inhibitor, single point].

Which “activity, negative = inhibition” value does the source give for `COc1ccc(S(=O)(=O)N2CCCCC2c2cc(C(=O)Nc3ccc4c(c3)OCO4)no2)cc1` (stereo not drawn) here?
Its value is inactive: 11.7%.

Which Potency does the source give for `Cc1cc2[nH]c3ccccc3c2cn1` here?
Its Potency is inconclusive: 0.501 µM [inhibitor, full curve, poor fit].

Which Potency does the source give for `CC(C)c1nc(N2CCN(C(=O)c3ccco3)CC2)c2c3c(sc2n1)CCCC3` here?
Its Potency is inconclusive: 15.8 µM [inhibitor, single point].

With `COc1cc(/C=N/N=C(N)N)ccc1OCc1ccccc1Cl` as the molecule, how does the Potency read?
Its Potency is inconclusive: 20 µM [inhibitor, single point].

For `C/C(=N\NC(=O)c1[nH]c2c([N+](=O)[O-])cc(C)cc2c1-c1ccccc1)c1cccnc1`, which Potency is on record?
Its Potency is inconclusive: 0.562 µM [inhibitor, full curve, poor fit].

For `COc1ccc(CNc2ncc(-c3ccccc3)n2C)c2ccccc12`, which Potency is on record?
The Potency was inconclusive: 12.6 µM [inhibitor, partial curve].

Which “activity, negative = inhibition” value does the source give for `O=C(c1cnn2ccccc12)N1CCN(C2CCCCC2)CC1` here?
Its value is inactive: -6.91%.

With `CCCCn1nc(C(=O)Nc2cc(C(F)(F)F)ccc2N2CCOCC2)ccc1=O` as the molecule, how does the Potency read?
The Potency was inconclusive: 35.5 µM [inhibitor, single point].

Which “activity, negative = inhibition” value does the source give for `COc1ccc(OC)c(NC(=O)C2(C)CCN2C(=O)C(C)(C)c2ccccc2)c1` (stereo not drawn) here?
The value was inactive: -10.4%.

For `CCN1CCc2c(sc(NC(=O)c3ccc(S(=O)(=O)N(C)c4ccccc4)cc3)c2C(=O)NC)C1`, which “activity, negative = inhibition” value is on record?
The value was inactive: 23.1%.

For `CC(C)(C)n1ncc2c(=O)n(CC(=O)c3ccccc3)cnc21`, which Potency is on record?
Its Potency is inconclusive: 35.5 µM [inhibitor, partial curve, poor fit].

Which “activity, negative = inhibition” value does the source give for `O=C(COc1coc(CN2CCN(c3cccc(Cl)c3)CC2)cc1=O)NC1CCCC1` here?
Its value is inactive: -5.67%.

Which Potency does the source give for `CC1(C)CC2CC(C)(CN2S(=O)(=O)c2ccccc2[N+](=O)[O-])C1` (stereo not drawn) here?
The Potency was inconclusive: 35.5 µM [inhibitor, single point].

With `CC(C)(C)c1ccc(/C=C/C(=O)c2ccc(NC3=NCCCS3)cc2)cc1` as the molecule, how does the Potency read?
Its Potency is inconclusive: 20 µM [inhibitor, single point].

Which Potency does the source give for `CC(C)CCNC(=O)c1ccccc1SCC(=O)NC1CCCCCCC1` here?
The Potency was inconclusive: 0.112 µM [inhibitor, full curve, poor fit].

Which Potency does the source give for `CC(=O)c1ccc(-c2cnc3c(NC=O)cc(-c4ccccc4Oc4ccccc4)cn23)cc1` here?
Its Potency is active: 11.2 µM.

With `Cc1ccc(NC(=O)Cc2ccc(-n3c(C)nc4cccnc43)cc2)c(Cl)c1` as the molecule, how does the Potency read?
The Potency was inconclusive: 4.47 µM [inhibitor, full curve].

Which Potency does the source give for `CN(Cc1nc2ccccc2c(=O)[nH]1)C(=O)c1ccccc1OCc1ccc(Cl)cc1` here?
The Potency was inconclusive: 35.5 µM [inhibitor, single point].

For `CCCCN(CC)C(=O)CSc1nc2n[nH]c(C)c2c(=N)n1-c1cccc(Cl)c1`, which Potency is on record?
The Potency was inconclusive: 6.31 µM [inhibitor, single point].

Which “activity, negative = inhibition” value does the source give for `O=C1N/C(=N\N=C\c2cccs2)SC1Cc1cccc(Cl)c1Cl` (stereo not drawn) here?
Its value is inactive: -9.02%.

Which Potency does the source give for `Cc1c(C(=O)NCc2ccc(F)cc2)sc(=O)n1Cc1ccc(C(=O)c2ccccc2)cc1` here?
The Potency was inconclusive: 8.91 µM [inhibitor, partial curve].

With `OC[C@H]1O[C@@H]2O[C@H]3[C@H](O)[C@@H](O)[C@@H](O[C@H]4[C@H](O)[C@@H](O)[C@@H](O[C@H]5[C@H](O)[C@@H](O)[C@@H](O[C@H]6[C@H](O)[C@@H](O)[C@@H](O[C@H]7[C@H](O)[C@@H](O)[C@@H](O[C@H]1[C@H](O)[C@H]2O)O[C@@H]7CO)O[C@@H]6CO)O[C@@H]5CO)O[C@@H]4CO)O[C@@H]3CO` as the molecule, how does the “activity, negative = inhibition” value read?
The value was inactive: -20.1%.

With `NC(=S)N1OC[C@@H]2COc3ccc4ccccc4c3[C@@H]21` as the molecule, how does the Potency read?
The Potency was inconclusive: 22.4 µM [inhibitor, single point].

For `Cc1ccc(NC(=O)CCSc2nnnn2-c2ccc3c(c2)OCO3)cc1C`, which “activity, negative = inhibition” value is on record?
Its value is inactive: 7.76%.

Which Potency does the source give for `CCc1nc2ccc(C(=O)NCc3ccccc3OC)cn2c1N(CC)Cc1cccc(Br)c1` here?
The Potency was inconclusive: 22.4 µM [inhibitor, single point].

For `Cc1nnc(N2CCC(C(=O)NC3CCCCC3)CC2)c2nn(-c3ccccc3)c(C)c12`, which “activity, negative = inhibition” value is on record?
Its value is inactive: 3.68%.

Which Potency does the source give for `Cc1cccc(NC(=O)C2CCCN(S(=O)(=O)c3c(C)nn(C)c3C)C2)n1` (stereo not drawn) here?
Its Potency is inconclusive: 35.5 µM [inhibitor, single point].
